# Data from paper PMC4336329 (PLoS ONE, 2015).
# Out of some 310,000 compounds screened, about 14,000 (4.5%) showed an effect of 50% or more. The effect is printed as a negative number. Some of the results follow.
# Target: human ether-à-go-go-related gene (hERG) potassium channel (human, UniProt Q12809)
# Assay: primary screen, population patch clamp on CHO cells stably expressing hERG
# 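Also: peak tail current of the secondary pulse compared with the same well before compound.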
# Chain of human ether-à-go-go-related gene (hERG) potassium channel (Q12809 whole entry, looked up): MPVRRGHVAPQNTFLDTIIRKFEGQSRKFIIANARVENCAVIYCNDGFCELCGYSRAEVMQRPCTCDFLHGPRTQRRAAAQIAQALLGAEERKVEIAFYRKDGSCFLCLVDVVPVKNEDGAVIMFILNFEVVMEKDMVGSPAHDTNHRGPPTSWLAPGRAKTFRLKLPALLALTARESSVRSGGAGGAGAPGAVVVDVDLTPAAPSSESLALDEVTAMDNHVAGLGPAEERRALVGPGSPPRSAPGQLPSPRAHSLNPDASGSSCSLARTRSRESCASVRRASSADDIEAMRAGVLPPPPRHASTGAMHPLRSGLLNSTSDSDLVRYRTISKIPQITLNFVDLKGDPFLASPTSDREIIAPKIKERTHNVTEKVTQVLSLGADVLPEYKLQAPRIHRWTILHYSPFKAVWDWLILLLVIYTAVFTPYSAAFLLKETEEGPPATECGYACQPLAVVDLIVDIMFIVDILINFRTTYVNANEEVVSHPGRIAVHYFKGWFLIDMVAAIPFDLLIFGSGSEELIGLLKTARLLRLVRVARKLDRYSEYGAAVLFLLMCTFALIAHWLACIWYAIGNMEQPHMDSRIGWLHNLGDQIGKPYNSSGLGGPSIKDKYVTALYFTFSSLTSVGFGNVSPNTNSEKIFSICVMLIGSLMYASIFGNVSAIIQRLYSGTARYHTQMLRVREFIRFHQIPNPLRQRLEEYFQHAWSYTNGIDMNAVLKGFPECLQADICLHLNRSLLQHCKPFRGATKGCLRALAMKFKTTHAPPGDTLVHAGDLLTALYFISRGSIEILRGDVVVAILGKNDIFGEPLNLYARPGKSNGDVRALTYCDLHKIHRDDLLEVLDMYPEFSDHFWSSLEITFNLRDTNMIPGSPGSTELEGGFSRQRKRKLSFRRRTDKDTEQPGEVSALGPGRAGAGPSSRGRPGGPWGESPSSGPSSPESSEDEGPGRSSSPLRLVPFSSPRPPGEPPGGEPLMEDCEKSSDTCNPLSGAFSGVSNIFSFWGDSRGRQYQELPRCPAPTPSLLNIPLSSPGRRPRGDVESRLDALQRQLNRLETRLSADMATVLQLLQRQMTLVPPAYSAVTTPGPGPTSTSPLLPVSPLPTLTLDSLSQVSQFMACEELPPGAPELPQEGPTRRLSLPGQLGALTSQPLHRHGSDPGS
row,Compound,"hERG current change (%, negative = inhibition) at 10uM [%]"
1,CN(CCOc1ccccc1)CC(=O)Nc1ccc(Cl)c(S(=O)(=O)N(C)C)c1.O=C(O)C(=O)O,-29.9
2,CN(Cc1ccccc1)C(=O)c1[nH]cnc1C(=O)NCc1ccccc1,-5.53
3,CC(CCN1CCN=C1Nc1ccccc1)c1ccccc1 (centres unmarked),-33.8
4,Cc1cc(C)c2nc(NNC(=O)c3ccc(S(=O)(=O)N4CCCC(C)C4)cc3)sc2c1 (centres unmarked),6.67
5,COc1cc(C(=O)NC(=S)Nc2cccc(-c3cc4ccccc4oc3=O)c2)cc(OC)c1OC,14.8
6,CC(=O)c1cc(F)ccc1OCC(=O)N1CCCc2ccccc21,-4.15
7,O=C(NCCC1=CCCCC1)c1cc2c(s1)CS(=O)(=O)C2,-28.1
8,CCS(=O)(=O)c1ccc(OC)c(N=Nc2ccc(O)c3ncccc23)c1,0.639
9,COc1ccc(C)cc1S(=O)(=O)Nc1ccc(F)cc1,-1.24
10,CCN(CCCNC(=O)CCCN1C(=O)COc2ccc(C)cc21)c1cccc(C)c1,-30
11,Cc1ccnc(SCC(=O)N2CCc3ccccc3C2)n1,12.3
12,COc1ccc(C(=O)NC2c3ccccc3-c3ccccc32)cc1,30.3
13,Clc1ccc(Cn2ncc3c(N4CCCC4)ncnc32)cc1,-56.7
14,CC(=O)Oc1ccc2c(c1)Oc1cc(OC(C)=O)ccc1C21OC(=O)c2ccccc21,12.6
15,COc1cc(C)c(NC(=O)Cc2ccsc2)cc1OC,29
16,Cc1ccc(N2CCN(C(=O)CN3C(=O)c4ccccc4C3=O)CC2)cc1,-15.9
17,COc1cc2[nH]c(C(=O)N3CCN(C)CC3)cc2c(OC)c1OC,17.3
18,CCN(CC)CCCN=C1N[C@@H](c2ccccc2)C(C(=O)OC)=C(C)N1CC,14.6
19,O=C(O)c1cccc(S(=O)(=O)N2CCC(Cc3ccccc3)CC2)c1,15.7
20,C=CCc1c(O)c(CC)cc2c(C)cc(=O)oc12,-0.0305
21,CCOc1ccc(/C=N/N2C(C)CCCC2C)cc1 (centres unmarked),-4.63
22,CCOC(=O)N1CCN(C(=O)c2ccc3c(=O)n(Cc4ccc(OC)cc4)c(=S)[nH]c3c2)CC1,-28.9

row,Compound,"hERG current change (%, negative = inhibition) at 10uM [%]"
1,Cc1ccc2nc(SC(C)C(=O)N3CCCC3)[nH]c2c1 (centres unmarked),17.6
2,CC(=O)NC(Cc1ccccc1)C(=O)NC1CCN(C(=O)c2cnccn2)CC1 (centres unmarked),-0.606
3,CN1CCN(CCNC(=O)c2cn(Cc3ccccc3F)nn2)CC1,4.59
4,CCn1c(SCC(=O)NC2CCCCC2)nnc1-c1ccccn1,-3.17
5,CCOC(=O)C1=C(CN2CCSCC2)NC(=O)NC1c1ccc2c(c1)OCO2 (centres unmarked),-15.3
6,COc1ccc(CC2CC(=O)N(c3ccc(C)cc3)C2=O)cc1 (centres unmarked),15.6
7,COc1cc(OC)c(OC)cc1CN1CCN(Cc2ccc(C(F)(F)F)cc2)CC1,-42.3
8,CCS(=O)(=O)N1Cc2ccccc2CC1C(=O)Nc1ccccc1OC (centres unmarked),-6.16
9,COc1ccc(-c2nn(-c3ccccc3)cc2C(=O)NC2CCCCC2C)cc1 (centres unmarked),6.61
10,Nc1cnc(Br)cc1Br,-10.3
11,COc1cc(C(C)=O)ccc1OCC(O)CN1CCN(c2ccc(F)cc2)CC1 (centres unmarked),-39
12,Cc1ccc(SCC(=O)OCC(=O)NCCCc2ccccc2)cc1,9.34
13,CS(=O)(=O)N(CC(O)CON=C1c2ccccc2-c2ccccc21)c1ccc(F)cc1 (centres unmarked),8.83
14,CCOC(=O)Cc1csc(NC(=O)c2cnc3sc(C)cn3c2=O)n1,-35
15,O=c1cc(C(F)(F)F)[nH]c2ccc(C(F)(F)F)cc12,12.5
16,COc1ccccc1CNC(=O)c1cccc(S(=O)(=O)N(C)c2ccccc2)c1,-23.5
17,CCOC(=O)C1CCCN(C(=O)c2cc(Cl)ccc2NC(=O)C2=C(C)OCCS2)C1 (centres unmarked),12.3
18,Cc1cc(OCC(=O)Nc2cnn(CCCC(=O)O)c2)ccc1[N+](=O)[O-],35.6
19,COc1ccc(-n2c(C)cc(/C=N/Nc3nnc(C)n3N)c2C)cc1.Cl,11.8
20,O=c1c2ccccc2nc(N2CCN(c3ccccc3)CC2)n1Cc1ccccc1,-15.4
21,Cc1ccc(OCCN2CCOCC2)cc1C,12.8
22,CCCCCCCOc1ccc(OC(=O)c2ccncc2)cc1,14.7
